Source: the supplement of paper PMC12423691
The list shows a part of the results. Binding of human transcription factors and regulators to the viral nucleoprotein by AlphaScreen, crude cell-free proteins, amounts not normalised, one pass. Fold of the Venus control; higher = more signal. No active / inactive call. Single-pass screen; sequences are the whole Swiss-Prot entries looked up by name.

B1: PA2G4, Q9UQ80 (protein)
chain: MSGEDEQQEQTIAEDLVVTKYKMGGDIANRVLRSLVEASSSGVSVLSLCEKGDAMIMEETGKIFKKEKEMKKGIAFPTSISVNNCVCHFSPLKSDQDYILKEGDLVKIDLGVHVDGFIANVAHTFVVDVAQGTQVTGRKADVIKAAHLCAEAALRLVKPGNQNTQVTEAWNKVAHSFNCTPIEGMLSHQLKQHVIDGEKTIIQNPTDQQKKDHEKAEFEVHEVYAVDVLVSSGEGKAKDAGQRTTIYKRDPSKQYGLKMKTSRAFFSEVERRFDAMPFTLRAFEDEKKARMGVVECAKHELLQPFNVLYEKEGEFVAQFKFTVLLMPNGPMRITSGPFEPDLYKSEMEVQDAELKALLQSSASRKTQKKKKKKASKTAENATSGETLEENEAGD
B2: NFKBID, Q8NI38 (protein)
chain: MEAGPWRVSAPPSGPPQFPAVVPGPSLEVARAHMLALGPQQLLAQDEEGDTLLHLFAARGLRWAAYAAAEVLQVYRRLDIREHKGKTPLLVAAAANQPLIVEDLLNLGAEPNAADHQGRSVLHVAATYGLPGVLLAVLNSGVQVDLEARDFEGLTPLHTAILALNVAMRPSDLCPRVLSTQARDRLDCVHMLLQMGANHTSQEIKSNKTVLHLAVQAANPTLVQLLLELPRGDLRTFVNMKAHGNTALHMAAALPPGPAQEAIVRHLLAAGADPTLRNLENEQPVHLLRPGPGPEGLRQLLKRSRVAPPGLSS
B3: MTA3, Q9BTC8 (protein)
chain: MAANMYRVGDYVYFENSSSNPYLIRRIEELNKTASGNVEAKVVCFYRRRDISNTLIMLADKHAKEIEEESETTVEADLTDKQKHQLKHRELFLSRQYESLPATHIRGKCSVALLNETESVLSYLDKEDTFFYSLVYDPSLKTLLADKGEIRVGPRYQADIPEMLLEGESDEREQSKLEVKVWDPNSPLTDRQIDQFLVVARAVGTFARALDCSSSVRQPSLHMSAAAASRDITLFHAMDTLYRHSYDLSSAISVLVPLGGPVLCRDEMEEWSASEASLFEEALEKYGKDFNDIRQDFLPWKSLTSIIEYYYMWKTTDRYVQQKRLKAAEAESKLKQVYIPTYSKPNPNQISTSNGKPGAVNGAVGTTFQPQNPLLGRACESCYATQSHQWYSWGPPNMQCRLCAICWLYWKKYGGLKMPTQSEEEKLSPSPTTEDPRVRSHVSRQAMQGMPVRNTGSPKSAVKTRQAFFLHTTYFTKFARQVCKNTLRLRQAARRPFVAINYAAIRAEYADRHAELSGSPLKSKSTRKPLACIIGYLEIHPAKKPNVIRSTPSLQTPTTKRMLTTPNHTSLSILGKRNYSHHNGLDELTCCVSD

Target: nucleoprotein N of Crimean-Congo hemorrhagic fever virus
Experiment: AlphaScreen luminescence signal relative to Venus negative control (fold); higher = stronger binding to CCHFV N
Procedure: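 AlphaScreen binding of cell-free made, FLAG-GST-tagged human transcription factors and regulators (crude translation products) to biotinylated N protein; signal as fold of the FLAG-GST-Venus control. One pass.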

Binder	AlphaScreen luminescence signal
B1	23.3
B2	1.81
B3	1.81
